Experimental data from PubChem BioAssay AID492949 (National Center for Advancing Translational Sciences (NCATS), 2010).
The inconclusive results got no clear call from the source; some entries with a clear call stand among them for comparison. Potencies beside an inconclusive call are fits to weak or partial responses and may not hold up. Activity calls are given as the source filed them. The call rests on the fitted dose curve; in most records, active means well fitted activation curve with a large enough effect; inconclusive means small, poorly fitted or top-dose-only effect; inactive means no such curve, though single readings can be large or run the other way.

Target: Relaxin receptor 1 (Homo sapiens) (UniProt Q9HBX9)
UniProt Q9HBX9, sequence (Q9HBX9 whole entry, looked up): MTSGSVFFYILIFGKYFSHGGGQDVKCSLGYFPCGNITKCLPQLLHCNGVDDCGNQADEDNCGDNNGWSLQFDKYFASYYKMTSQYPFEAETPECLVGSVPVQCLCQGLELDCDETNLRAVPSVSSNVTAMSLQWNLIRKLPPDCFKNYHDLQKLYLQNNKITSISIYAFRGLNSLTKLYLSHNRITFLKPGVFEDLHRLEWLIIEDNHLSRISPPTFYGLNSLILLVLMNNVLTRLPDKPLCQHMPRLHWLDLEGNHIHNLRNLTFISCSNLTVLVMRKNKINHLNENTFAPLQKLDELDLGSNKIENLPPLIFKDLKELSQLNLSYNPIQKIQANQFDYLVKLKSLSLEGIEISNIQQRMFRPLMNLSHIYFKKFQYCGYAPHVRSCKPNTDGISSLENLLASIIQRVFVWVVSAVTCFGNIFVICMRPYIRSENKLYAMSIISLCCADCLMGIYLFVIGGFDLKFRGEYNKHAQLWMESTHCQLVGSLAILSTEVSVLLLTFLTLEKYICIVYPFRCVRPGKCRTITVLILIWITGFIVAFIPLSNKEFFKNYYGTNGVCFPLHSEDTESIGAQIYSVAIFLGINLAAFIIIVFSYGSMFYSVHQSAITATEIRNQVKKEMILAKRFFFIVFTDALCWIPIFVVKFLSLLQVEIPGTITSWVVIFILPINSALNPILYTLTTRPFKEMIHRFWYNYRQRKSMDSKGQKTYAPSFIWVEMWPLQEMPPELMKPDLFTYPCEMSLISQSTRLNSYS
Assay: qHTS Assay for Agonists of the Relaxin Receptor RXFP1: THP1 Hit Validation; further: nearly all actives have a fitted effect of over 60% in size
Details: THP1-RXFP1 cells, cAMP TR-FRET, 30 min; series mostly up to 115 µM
Summary of the method: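 TR-FRET cAMP readout (signal falls as cAMP rises) in lysed RXFP1-transfected THP1 cells after 30 min compound treatment, 37C, PDE4 inhibitor present. EC50 from Hill equation, 0-100% set by buffer and 29 nM porcine relaxin.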
Potency means the concentration at half of the fitted maximal effect; tags describe the fitted curve by direction and shape.

Potency, active:
COc1ccc(Cl)cc1-c1n[nH]c(=S)o1 6.15 µM, Cc1ccc(-n2nnc3c(=O)n(CC(=O)NCC4CCCO4)cnc32)cc1 (configuration not stated) 15.5 µM, CC1(C)O[C@@H]2[C@H](O1)[C@@H](COS(=O)(=O)O)O[C@H]2n1cnc2c(N)ncnc21 5.48 µM, CCc1cc2cc3c(cc2nc1SCC(=O)Nc1nccs1)OCO3 21.8 µM, Cc1ccccc1OCC(=O)Nc1sc(C(=O)Nc2cccc(C)c2C)c(C)c1C#N 7.74 µM, CCc1nnc(NC(=O)CSc2nc(C)nc3c2c(=O)n(C)c(=O)n3C)s1 10.9 µM, CCC(=O)Nc1ccc(NC(=O)CSc2nc3c(c(=O)n(C)c(=O)n3C)n2CC)cc1 43.6 µM, O=C(Nc1cc(S(=O)(=O)N2CCOCC2)ccc1N1CCOCC1)c1cn2ccccc2n1 8.7 µM, O=c1c2ccccc2cnn1Cc1n[nH]c(=S)n1-c1ccc(F)c(Cl)c1 12.3 µM, O=C(COc1ncnc2scc(-c3ccccc3)c12)NCCN1C(=O)CSC1=O 19.4 µM, Cn1c(=O)c2sccc2n2c(CCCC(=O)NCc3ccco3)nnc12 34.6 µM, Brc1ccc2ncnc(NCc3cccnc3)c2c1 48.9 µM, CCOC(=O)CNC(=O)CSc1nc2c(C)cccc2cc1CC 19.4 µM, S=c1nc[nH]c2c1[nH]c1ccc(Cl)cc12 1.55 µM, COC(=O)c1sc(N2C(=O)C(O)=C(C(=O)c3ccc(C)o3)C2c2ccc(F)cc2)nc1C (configuration not stated) 2.75 µM

Potency, inactive:
O=C(Nc1ccccc1C(=O)NCCN1CCOCC1)c1ccco1, COC(=O)C(C)Sc1ccc2nnc(-c3ccccc3)n2n1 (configuration not stated)

Potency, inconclusive:
O=C(CSc1ccc2nnc(-c3ccncc3)n2n1)NCC1CCCO1 (configuration not stated) 48.9 µM [activator, partial curve, poor fit], Nc1c(Cl)cc(-c2[nH]c3cc(C(=O)NCCO)ccc3c(=O)c2O)cc1Cl 48.9 µM [activator, partial curve, poor fit], CCCCn1c(=O)[nH]c(=O)c2c1nc(Cn1ncc(Cl)c(Cl)c1=O)n2CCC 38.9 µM [activator, partial curve], O=c1nc2ccccn2c2ccc(S(=O)(=O)N3CCCCC3)cc12 34.6 µM [activator, partial curve, poor fit], Cc1cc(CNC(=O)COc2ccc([N+](=O)[O-])cc2)c2ccccc2n1 17.4 µM [activator, partial curve], O=C(CN1C(=O)c2ccc(Br)cc2C1=O)NCC1CCCO1 (configuration not stated) 38.9 µM [activator, partial curve], NS(=O)(=O)c1cccc(NC(=O)CSc2ncnc3ccccc23)c1 21.9 µM [activator, partial curve], CCOc1ccccc1OCC(=O)NNC(=O)Cn1cnc2c1c(=O)n(C)c(=O)n2C 38.9 µM [activator, partial curve], Cc1[nH]n(-c2ccc([N+](=O)[O-])cc2)c(=O)c1C=NCCN1CCN(C(=O)C(C)C)CC1 12.3 µM [activator, full curve], CCN(CC)S(=O)(=O)c1ccc2c(c1)N(CC(=O)NCc1ccccn1)C(=O)CO2 19.5 µM [activator, partial curve], O=C(CCc1nnc2ccc(N3CCC4(CC3)OCCO4)nn12)NCc1ccccc1Cl 30.9 µM [activator, partial curve], O=C(O)C1Cc2ccccc2CN1C(=O)CSc1nnc2ccccn12 (configuration not stated) 38.9 µM [activator, partial curve], CCn1c(SCC(=O)Nc2c(C)n(C)n(-c3ccccc3)c2=O)nc2c1c(=O)n(C)c(=O)n2C 38.9 µM [activator, partial curve], Cn1c(=O)c2sccc2n2c(CCCC(=O)N3CCCCC3)nnc12 38.9 µM [activator, partial curve], CCN1CCN(C(=O)CCc2nnc3ccc(N4CCC5(CC4)OCCO5)nn23)CC1 24.5 µM [activator, partial curve], O=[N+]([O-])c1cccc(CSc2nnc3ccccn23)c1 34.6 µM [activator, partial curve], Cc1ccc(NC(=O)CCc2nnc3ccc(N4CCN(C)CC4)nn23)cc1F 38.9 µM [activator, partial curve], COC(=O)c1sc(N2C(=O)C(O)=C(C(=O)c3ccc(C)o3)C2c2cccs2)nc1C (configuration not stated) 9.74 µM [activator, partial curve], O=C(OCc1cccc([N+](=O)[O-])c1)c1cnccn1 38.9 µM [activator, partial curve], COc1ccc(NC(=O)CCCc2nnc3n(C)c(=O)c4sccc4n23)cc1 34.6 µM [activator, partial curve]
